Assay results: paper PMC12341937, “AlphaFold-guided structural analyses of nucleosome binding proteins” (Nucleic Acids Research, 2025)

Biological target: the molecule itself
Experiment: AUC; OD 0.8, Tris–HCl pH 7.5, 300 mM NaCl; absorbance at 280 nm, 16°C, 58 000 rpm, 8 h

B1: RNF168 ([…]) (domain or fragment)
chain: not shown
notes: pET28a; a thrombin site follows the His tag
B1 was tested, and the “stoichiometry N” value was 2.
